Measured values from patent publication US20250075006A1 (SHANDONG SIMCERE BIOPHARMACEUTICAL, published 2025).
Like-named read-outs stand apart in the source and are kept apart here. One block for each binder: values may come before it.

Key:
[1] = molecular target: T1, Human GUCY2C ECD (his-tagged human GUCY2C protein extracellular domain fusion protein) (human, UniProt P25092 partial chain); assay: SPR Biacore, antibody on Protein A, antigen injected
T1 construct: also called human GUCY2C-his; human GUCY2C-His
Description: (§1) The strength of antibody-antigen binding was assayed with a BIAcore 8K instrument using a Protein A capture method. First, Protein A was immobilized onto a CM4 chip (purchased from GE, BR-1005-34) using an amino coupling method. According to the instruction of the Amine Coupling Kit (purchased from GE, BR100633), NHS and EDC were mixed with HBS-EP+pH 7.4 as a mobile phase to activate the chip for about 600 s; the Protein A was diluted to 50 μg/mL with 10 mM sodium acetate (pH 4.5) and injected for 600 s, and finally, the remaining activated sites were blocked with ethanolamine. Then, the affinity of the antibody for the antigen was assayed using a multi-cycle kinetic method; in each cycle, first, the antibody to be tested was captured using the Protein A chip, and then a single concentration of antigen protein was injected. The association and dissociation processes of the antibody with the antigen protein were recorded, and finally, the chip was regenerated using Glycine pH 1.5, wherein the mobile phase was HBS-EP+(10 mM HEPES, 150 mM NaCl, 3 mM EDTA, 0.05% surfactant P20), the flow rate was 30 μL/min, the regeneration time was 30 s, and the assay temperature was 25° C. Finally, according to a 1:1 binding model, the data were analyzed, and the antibody-antigen binding kinetics parameters, including the association rate constant Ka, the dissociation rate constant Kd, the equilibrium dissociation constant KD, and the maximum binding signal Rmax, were fitted.
(§2) After the finally obtained various humanized antibodies were expressed and purified, the affinities of the humanized antibodies for the human and monkey GUCY2C proteins were separately assayed according to the method in Example 4.6.

[2] = molecular target: T2, Cyno GUCY2C ECD (his-tagged cynomolgus monkey GUCY2C protein extracellular domain fusion protein) (cynomolgus monkey, UniProt P25092 partial chain (human entry)); assay: ELISA, plate coated with monkey GUCY2C-his, OD450
T2 construct: also called monkey GUCY2C-his; monkey GUCY2C-His
T2 chain: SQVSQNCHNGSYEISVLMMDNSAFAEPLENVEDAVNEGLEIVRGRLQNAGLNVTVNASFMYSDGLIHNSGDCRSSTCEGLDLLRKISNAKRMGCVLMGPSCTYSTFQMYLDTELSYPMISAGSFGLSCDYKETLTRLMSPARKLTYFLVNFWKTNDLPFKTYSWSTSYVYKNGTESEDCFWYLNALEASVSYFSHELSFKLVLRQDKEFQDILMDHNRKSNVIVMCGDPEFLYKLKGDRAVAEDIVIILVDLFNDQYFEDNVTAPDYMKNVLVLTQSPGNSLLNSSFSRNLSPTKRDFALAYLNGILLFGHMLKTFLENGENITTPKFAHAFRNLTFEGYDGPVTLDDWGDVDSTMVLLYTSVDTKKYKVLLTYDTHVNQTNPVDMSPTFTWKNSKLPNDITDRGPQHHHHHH

[3] = molecular target: T2, Cyno GUCY2C ECD (his-tagged cynomolgus …); assay: BLI Gator, antibody on anti-human Fc probe, antigen in solution
Description: (§3) Next, we measured the affinity of the recombinant antibody by another method, and the specific procedures were as follows: the binding strength of the antibody to the antigen was assayed by acquiring and analyzing the signal change of the reflection interference spectrum on the surface of the optical probe by using thin film interference technology. First, the probe was equilibrated for 300 s with HBS-T+pH 7.4 (0.02% tween) as the mobile phase. 2 μg/mL of the antibody to be tested was captured by an anti-human FC probe (purchased from ProbeLife, PL168-160003) for 240 s, and then antigen proteins with the concentration of 200 nM and diluted two-fold were injected. Kon for 300 s and Koff for 600 s. The association and dissociation processes of the antibody with the antigen protein were recorded, and finally, the chip was regenerated using Glycine pH 2.0 (purchased from GE), wherein the mobile phase was HBS-T+pH 7.4 (0.02% tween), the regeneration time was 5 s, and the assay temperature was 30° C. Finally, according to a 1:1 binding model, the data were analyzed, and the antibody-antigen binding kinetics parameters, including the association rate constant Ka, the dissociation rate constant Kd, the equilibrium dissociation constant KD, and the maximum binding signal Rmax, were fitted. The association rate (Ka), dissociation rate (Kd), and binding affinity (KD) of the recombinant antibodies with the human GUCY2C and monkey GUCY2C proteins are shown in Table 6.
as §2

[4] = molecular target: T1, Human GUCY2C ECD (his-tagged human …); assay: as above
Description: as §3, §2

[5] = molecular target: T3, human GUCY2C protein, full length, on cells (human, UniProt P25092 24-1073); assay: FACS on 293T-hGUCY2C cells, MFI
T3 construct: whole, on cells; also called endogenous tumor cells HT55
Description: Then a complete medium was added to stop the digestion, and the cells were blown into a single cell suspension. After counting, the cells were centrifuged, and the cell pellet was resuspended to 2×10⁶ cells/mL in an FACS buffer (PBS+2% fetal bovine serum), and added to a 96-well FACS reaction plate at 100 μL/well. The plate was centrifuged, and the supernatant was discarded. An antibody sample to be tested (diluted in a 5-fold gradient from a starting concentration of 100 nM) was added at 50 μL/well and uniformly mixed with the cells, and the mixture was incubated at 4° C. for 1 h. […] The results were tested and analyzed by FACS (FACS Canto™, purchased from BD) after the plate was centrifuged and washed 3 times with a PBS buffer and resuspended with 100 μL of PBS. Data analysis was performed by software (FlowJo) to obtain the mean fluorescence intensity (MFI) of the cells. Then, analysis was performed by software (GraphPad Prism8), data were fitted, and EC50 values were calculated. As shown in A-C in FIG. 14, PF1608-hIgG1 binds strongly to GUCY2C at the protein level, but weakly at the cellular level. The humanized antibodies of the present application are all capable of binding effectively to recombinant cells expressing human GUCY2C protein and substantially maintain the equivalent binding ability of the recombinant antibodies.

[6] = molecular target: T1, Human GUCY2C ECD (his-tagged human …); assay: ELISA, plate coated with human GUCY2C-his, OD450
Description: To assay the binding activity of the humanized antibodies to human GUCY2C-his protein, a human GUCY2C-his protein was diluted with PBS to a final concentration of 2 μg/mL and then added to a 96-well ELISA plate at 50 μL/well. The plate was sealed with a plastic film and incubated at 4° C. overnight. The next day, the plate was washed 2 times with PBST, and a blocking buffer [PBS+2% (w/w) BSA] was added for blocking at room temperature for 2 h. The blocking buffer was discarded, and the plate was washed 2 times with PBST. An antibody to be tested or a control antibody diluted in a 1:3 gradient from a starting concentration of 100 nM was added at 50 μL/well. After incubation at 37° C. for 1 h, the plate was washed 3 times with PBST. A horseradish peroxidase (HRP)—labeled secondary antibody (purchased from Merck, Cat. No. AP113P) was added for incubation at 37° C. for 1 h, and the plate was washed 5 times with PBST. A TMB substrate was added at 50 µL/well for incubation at room temperature for 5-10 min, and then a stop solution (1.0 M HCl) was added at 50 μL/well. OD450 nm values were read using an ELISA plate reader (Multimode Plate Reader, EnSight, purchased from Perkin Elmer).

[7] = molecular target: T2, Cyno GUCY2C ECD (his-tagged cynomolgus …); assay: BLI Gator, antibody on anti-human Fc probe, antigen in solution
Description: as §3

[8] = molecular target: T1, Human GUCY2C ECD (his-tagged human …); assay: as above; remark: listed apart in the source
Description: as §3

[9] = molecular target: T1, Human GUCY2C ECD (his-tagged human …); assay: SPR Biacore, antibody on Protein A, antigen injected; remark: listed apart in the source
Description: as §1
The association rate (Ka), dissociation rate (Kd), and binding affinity (KD) of the recombinant antibodies Lab306-huFc, Lab322-huFc, and Lab323-huFc with the human GUCY2C protein are shown in Table 5. The positive control antibody has good binding activity at the protein level, but has very weak binding at the cellular level. Lab322-huFc and Lab323-huFc, although weak in affinity, bind well to the cellular level, presumably due to differences in the conformation of the proteins and proteins at the viable cellular level.

B1: hu-Lab323H3-huFc (Fc fusion)
chain: EVQLVESGGGLVKPGGSLRLSCASSGRTSTIHRMGWFRQAPGKEREFVSSISRVSSTTYYADSVKGRFTISRDNAKNSLYLQMNSLRAEDTAVYYCAASEYEVSPGKSKYWGQGTMVTVSS[human IgG1 Fc with C220S (EU numbers) not listed]
Kd [1]: 273 nM
koff [1]: 0.000274 s⁻¹
EC50 (read off the curve) [2]: ~0.5 nM
Kd [3]: 41.5 nM
koff [3]: 0.000975 s⁻¹
kon [3]: 23500 M⁻¹ s⁻¹
Kd [4]: 26.6 nM
koff [4]: 0.00146 s⁻¹
kon [4]: 54900 M⁻¹ s⁻¹
EC50 (read off the curve) [5]: ~3 nM
EC50 (read off the curve) [6]: ~0.2 nM

B2: Lab323-huFc (Fc fusion)
chain: QLQLVESGGGLVQPGGSLRLSCVSSGRTSTIHRMGWFRQAPGKERDFVASISRVSSTTYYADSVKGRFTISRDNAGNTVYLQMNSLKPEDTAVYYCAASEYEVSPGKSKYWGQGTQVTVSS[human IgG1 Fc with C220S (EU numbers) not listed]
notes: also called recombinant antibody Lab323-huFc
Kd [7]: 17.8 nM
koff [7]: 0.0006 s⁻¹
kon [7]: 33800 M⁻¹ s⁻¹
Kd [8]: 12.2 nM
koff [8]: 0.00087 s⁻¹
kon [8]: 71400 M⁻¹ s⁻¹
Kd [9]: 102 nM
koff [9]: 0.00029 s⁻¹
kon [9]: 2830 M⁻¹ s⁻¹

B4: hu-Lab323H4-huFc (Fc fusion)
chain: QLQLVESGGGLVKPGGSLRLSCASSGRTSTIHRMGWFRQAPGKEREFVSSISRVSSTTYYADSVKGRFTISRDNAKNSLYLQMNSLRAEDTAVYYCAASEYEVSPGKSKYWGQGTMVTVSS[human IgG1 Fc with C220S (EU numbers) not listed]
Kd [1]: 558 nM
koff [1]: 0.000618 s⁻¹
kon [1]: 1110 M⁻¹ s⁻¹
EC50 (read off the curve) [2]: ~0.5 nM
Kd [3]: 48.3 nM
koff [3]: 0.00143 s⁻¹
kon [3]: 29600 M⁻¹ s⁻¹
Kd [4]: 29.9 nM
koff [4]: 0.00203 s⁻¹
kon [4]: 67800 M⁻¹ s⁻¹
EC50 (read off the curve) [5]: ~3 nM
EC50 (read off the curve) [6]: ~0.2 nM

B5: hu-Lab323H5-huFc (Fc fusion)
chain: EVQLVESGGGLVKPGGSLRLSCASSGRTSTIHRMGWFRQAPGKEREFVSSISRVSSTTYYADSVKGRFTISRDNAGNSLYLQMNSLRAEDTAVYYCAASEYEVSPGKSKYWGQGTMVTVSS[human IgG1 Fc with C220S (EU numbers) not listed]
Kd [1]: 310 nM
koff [1]: 1.65 s⁻¹
EC50 (read off the curve) [2]: ~0.8 nM
Kd [3]: 19.1 nM
koff [3]: 0.000569 s⁻¹
kon [3]: 29800 M⁻¹ s⁻¹
Kd [4]: 27.8 nM
koff [4]: 0.00123 s⁻¹
kon [4]: 44300 M⁻¹ s⁻¹
EC50 (read off the curve) [5]: ~3 nM
EC50 (read off the curve) [6]: ~0.3 nM

Second part, the binder after the results:

Kd [1]: 165 nM
koff [1]: 0.000167 s⁻¹
EC50 (read off the curve) [2]: ~0.5 nM
Kd [3]: 17.5 nM
koff [3]: 0.000691 s⁻¹
kon [3]: 39500 M⁻¹ s⁻¹
Kd [4]: 26.7 nM
koff [4]: 0.00151 s⁻¹
kon [4]: 56400 M⁻¹ s⁻¹
EC50 (read off the curve) [5]: ~3 nM
EC50 (read off the curve) [6]: ~0.2 nM
B3: hu-Lab323H2-huFc (Fc fusion)
chain: EVQLVESGGGLVKPGGSLRLSCAASGRTSTIHRMGWFRQAPGKEREFVSSISRVSSTTYYADSVKGRFTISRDNAKNSLYLQMNSLRAEDTAVYYCAASEYEVSPGKSKYWGQGTMVTVSS[human IgG1 Fc with C220S (EU numbers) not listed]

Kd [1]: 98.4 nM
koff [1]: 0.000134 s⁻¹
kon [1]: 1360 M⁻¹ s⁻¹
EC50 (read off the curve) [2]: ~0.3 nM
Kd [3]: 15.4 nM
koff [3]: 0.00047 s⁻¹
kon [3]: 30500 M⁻¹ s⁻¹
Kd [4]: 20.1 nM
koff [4]: 0.00116 s⁻¹
kon [4]: 57800 M⁻¹ s⁻¹
EC50 (read off the curve) [5]: ~3 nM
EC50 (read off the curve) [6]: ~0.2 nM
B6: hu-Lab323H6-huFc (Fc fusion)
chain: EVQLVESGGGLVKPGGSLRLSCASSGRTSTIHRMGWFRQAPGKEREFVSSISRVSSTTYYADSVKGRFTISRDNAKNSVYLQMNSLRAEDTAVYYCAASEYEVSPGKSKYWGQGTMVTVSS[human IgG1 Fc with C220S (EU numbers) not listed]
